Data reported in ChEMBL document CHEMBL5606458, “ASAP - ZIKV NS2B-NS3 protease fluorescence single point” (2024).
Among all 2,700 compounds or so, about 160 (5.9%) showed an effect of 50% or more. The list shows a part of the results.

Target: Nonstructural protein 3 (Zika virus) (UniProt A0A024AXB9)
[1] = PRVABC59, Concentration 15.0 uM, Number of replicates 1.0
[2] = PRVABC59, Concentration 50.0 uM, Number of replicates 1.0
[3] = PRVABC59, Concentration 10.0 uM, Number of replicates 1.0

Sequence of UniProt A0A024AXB9 (A0A024AXB9 as listed by the source): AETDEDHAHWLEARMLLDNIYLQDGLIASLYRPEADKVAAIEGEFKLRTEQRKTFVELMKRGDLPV

Cc1cc(CO)c2cccc(NCc3c(C)noc3C)c2n1
inhibition (PRVABC59, Concentration 99.9 uM, Number of replicates 2.0, Standard deviation 0.41367502705709386 %): -9.09%

c1cnc(N2CCOCC2)c(CN2CC[C@H](c3c[nH]c4ccccc34)C2)c1
inhibition (PRVABC59, Concentration 49.5 uM, Number of replicates 2.0, Standard deviation 0.5816150455075427 %): 4.93% | inhibition (PRVABC59, Concentration 99.01 uM, Number of replicates 2.0, Standard deviation 1.6761828626765602 %): 10.2% | inhibition (PRVABC59, Concentration 198.0 uM, Number of replicates 2.0, Standard deviation 1.4600963075359947 %): 18.9%

CC(=O)N[C@@H](CCCN)C(=O)Nc1ccccc1Cc1cccc2c(CO)cc(C)nc12
inhibition (PRVABC59, Concentration 49.95 uM, Number of replicates 2.0, Standard deviation 1.2164295290794762 %): 11.2% | inhibition (PRVABC59, Concentration 99.9 uM, Number of replicates 2.0, Standard deviation 0.5089666913167087 %): 30.6%

Cc1cc(CO)c2cccc(CC(=O)N[C@@H](CCC(N)=O)C(=O)O)c2n1
inhibition (PRVABC59, Concentration 49.95 uM, Number of replicates 2.0, Standard deviation 0.13741625923449508 %): 69.6% | inhibition (PRVABC59, Concentration 99.9 uM, Number of replicates 2.0, Standard deviation 0.11197439842459092 %): 81.6%

Cc1cc(CO)c2cccc(Cc3ccccc3NC(=O)CN3CCOCC3)c2n1
inhibition (PRVABC59, Concentration 49.95 uM, Number of replicates 2.0, Standard deviation 1.084098076383578 %): 0.101% | inhibition (PRVABC59, Concentration 99.9 uM, Number of replicates 2.0, Standard deviation 0.7329111048936454 %): 5.2%

CN(Cc1c(Cl)cccc1Cl)C(=O)c1cc(Cl)ccc1NS(=O)(=O)c1ccc(Oc2ccccc2Cl)cc1
inhibition [1]: 10.4%

O=Cc1ccc(N2CCC(C(=O)Nc3cc(Br)cc(C(F)(F)F)c3)CC2)cc1
inhibition [2]: 21.9%

O=C(c1ccn([C@H]2CCCNC2)n1)N1CCC[C@H](c2ccccc2)C1
inhibition (PRVABC59, Concentration 49.5 uM, Number of replicates 2.0, Standard deviation 1.6630114667547238 %): 2.87% | inhibition (PRVABC59, Concentration 99.01 uM, Number of replicates 2.0, Standard deviation 1.0930112497598132 %): 3.54% | inhibition (PRVABC59, Concentration 198.0 uM, Number of replicates 2.0, Standard deviation 1.7937643092396465 %): 3.5%

O=C(Nc1ccc(-c2ccccn2)cc1)c1cc(Cl)ccc1NS(=O)(=O)c1ccc(Oc2ccccc2Cl)cc1
inhibition [1]: 58.7%

O=Cc1ccc(N2CCC(C(=O)NCc3ccc(Br)cc3F)CC2)cc1
inhibition [3]: 17.2%

CSc1ncc(C#N)c(NC(=O)c2cc(Cl)ccc2NS(=O)(=O)c2ccc(Oc3ccccc3Cl)cc2)n1
inhibition [1]: 21.8%

CC(C)Sc1ccccc1NC(=O)C1CCN(c2ccc(C=O)cc2)CC1
inhibition [2]: 16.3%

O=C(Nc1ccc([N+](=O)[O-])cc1Cl)c1cc(Cl)ccc1NS(=O)(=O)c1ccc(Oc2ccccc2Cl)cc1
inhibition [1]: 24%

O=C(NCCc1c[nH]c2cccnc12)[C@@]1(c2ccc(F)cc2)CCCNC1
inhibition (PRVABC59, Concentration 49.5 uM, Number of replicates 2.0, Standard deviation 1.1099611949443484 %): 2.3% | inhibition (PRVABC59, Concentration 99.01 uM, Number of replicates 2.0, Standard deviation 0.8664361984862207 %): -0.092% | inhibition (PRVABC59, Concentration 198.0 uM, Number of replicates 2.0, Standard deviation 1.4816570758007732 %): -1.42%

C[C@@H](c1ccccc1)N(C(=O)C1CCN(c2ccc(C=O)cc2)CC1)[C@@H](C)c1ccccc1
inhibition [2]: 26.7%

O=C(NC[C@H](c1cccnc1)N1CCOCC1)c1cc(Cl)ccc1NS(=O)(=O)c1ccc(Oc2ccccc2Cl)cc1
inhibition [1]: 2.85%

Cc1cc(CO)c2cccc(Cc3ccccc3NC(=O)[C@@H]3CCCC[C@H]3C(=O)O)c2n1
inhibition (PRVABC59, Concentration 49.95 uM, Number of replicates 2.0, Standard deviation 1.5421677066029247 %): 1.35% | inhibition (PRVABC59, Concentration 99.9 uM, Number of replicates 2.0, Standard deviation 1.4251056567274625 %): 7.62%

O=Cc1ccc(N2CCC(C(=O)NCc3nnc(-c4ccccc4)o3)CC2)cc1
inhibition [3]: 26%

Cc1cc(CO)c2cccc(Cc3ccccc3NC(=O)c3ccno3)c2n1
inhibition (PRVABC59, Concentration 49.95 uM, Number of replicates 2.0, Standard deviation 1.5828849129389049 %): 2.18% | inhibition (PRVABC59, Concentration 99.9 uM, Number of replicates 2.0, Standard deviation 2.269989474171758 %): 5.92%

Cc1cc(CO)c2cccc(Nc3ccc(C(=O)O)o3)c2n1
inhibition (PRVABC59, Concentration 49.95 uM, Number of replicates 2.0, Standard deviation 2.70478007233281 %): 3.98% | inhibition (PRVABC59, Concentration 99.9 uM, Number of replicates 2.0, Standard deviation 2.574308096446364 %): 5.17%

C[C@H](NC(=O)C1CCN(c2ccc(C=O)cc2)CC1)c1cccc(C(F)(F)F)c1
inhibition [3]: 8.54%

CC(=O)N[C@@H](CCCCN)C(=O)Nc1cccc2cccnc12
inhibition (PRVABC59, Concentration 49.95 uM, Number of replicates 2.0, Standard deviation 1.4994344900621228 %): 16.3% | inhibition (PRVABC59, Concentration 99.9 uM, Number of replicates 2.0, Standard deviation 0.8351280021257822 %): 36.4%

Cc1cc(CO)c2cccc(NCc3ccc(C(N)=O)cc3)c2n1
inhibition (PRVABC59, Concentration 49.95 uM, Number of replicates 2.0, Standard deviation 0.6911398690966805 %): -7.9% | inhibition (PRVABC59, Concentration 99.9 uM, Number of replicates 2.0, Standard deviation 1.6597447488203414 %): -2.82%

O=Cc1ccc(N2CCC(C(=O)N[C@H](c3ccccc3)[C@@H](O)c3ccccc3)CC2)cc1
inhibition [3]: 17.8%

CC(=O)N[C@@H](Cc1ccc(CN)cc1)C(=O)Nc1cccc2c(CO)cc(C)nc12
inhibition (PRVABC59, Concentration 49.95 uM, Number of replicates 2.0, Standard deviation 1.5120886598590335 %): 62.5% | inhibition (PRVABC59, Concentration 99.9 uM, Number of replicates 2.0, Standard deviation 0.31634008358167093 %): 95.8%

Cn1cccc(C(=O)Nc2cc(Cl)cc(C(=O)NC(C)(C)CO)c2)c1=O
inhibition (PRVABC59, Concentration 49.5 uM, Number of replicates 2.0, Standard deviation 0.30356722825935345 %): -5.7% | inhibition (PRVABC59, Concentration 99.01 uM, Number of replicates 2.0, Standard deviation 3.4992289478002414 %): -9.4%

Cc1nc([C@H]2CC[C@H](NC(=O)c3ccc(O)c(NC(=O)c4ccncc4F)c3C)CC2)n[nH]1
inhibition (PRVABC59, Concentration 49.5 uM, Number of replicates 2.0, Standard deviation 1.8524213427177132 %): -0.145% | inhibition (PRVABC59, Concentration 99.01 uM, Number of replicates 2.0, Standard deviation 2.7773366306875875 %): 1.05% | inhibition (PRVABC59, Concentration 198.0 uM, Number of replicates 2.0, Standard deviation 2.4534867584179723 %): 2.07%

COc1cc2c(cc1OC)C(=O)[C@@H](CC1CCN(C(=O)C3CCN(c4ccc(C=O)cc4)CC3)CC1)C2
inhibition [2]: -0.737%

O=Cc1ccc(N2CCC(C(=O)NCCc3cccc(Br)c3)CC2)cc1
inhibition [2]: 23.4%

O=C(c1cc(Cl)ccc1NS(=O)(=O)c1ccc(Oc2ccccc2Cl)cc1)N1Cc2ccccc2C[C@@H]1CO
inhibition [1]: 15.1%

CCn1nnc(Cn2cc(C3CCNCC3)c(C)n2)n1
inhibition (PRVABC59, Concentration 49.5 uM, Number of replicates 2.0, Standard deviation 0.8782391231154009 %): -0.555% | inhibition (PRVABC59, Concentration 99.01 uM, Number of replicates 2.0, Standard deviation 1.870400808970824 %): -0.817% | inhibition (PRVABC59, Concentration 198.0 uM, Number of replicates 2.0, Standard deviation 0.6669646053782257 %): -2.54%

O=C(N[C@H](C(=O)O)c1ccc(OCc2ccccc2)cc1)OCc1ccccc1
inhibition (PRVABC59, Concentration 49.5 uM, Number of replicates 2.0, Standard deviation 1.331842520286677 %): 0.942% | inhibition (PRVABC59, Concentration 99.01 uM, Number of replicates 2.0, Standard deviation 1.0180694326604105 %): 3.84% | inhibition (PRVABC59, Concentration 198.0 uM, Number of replicates 2.0, Standard deviation 0.8803707895408924 %): 10.9%

Cc1cc(CO)c2cccc(Cc3ccccc3NC(=O)c3cc(C(F)F)nn3C)c2n1
inhibition (PRVABC59, Concentration 49.95 uM, Number of replicates 2.0, Standard deviation 1.9900580299699202 %): -2.76% | inhibition (PRVABC59, Concentration 99.9 uM, Number of replicates 2.0, Standard deviation 1.5421676223092275 %): 1.28%

Cc1cc(CO)c2cccc(Cc3ccccc3C(=O)Nc3cc(O)[nH]n3)c2n1
inhibition (PRVABC59, Concentration 49.95 uM, Number of replicates 2.0, Standard deviation 0.5138590974918532 %): 8.28% | inhibition (PRVABC59, Concentration 99.9 uM, Number of replicates 2.0, Standard deviation 0.5558070128777759 %): 19.9%

Cc1cc(CO)c2cccc(CC(=O)Nc3cc(O)[nH]n3)c2n1
inhibition (PRVABC59, Concentration 49.95 uM, Number of replicates 2.0, Standard deviation 0.5293246306718348 %): -5.29% | inhibition (PRVABC59, Concentration 99.9 uM, Number of replicates 2.0, Standard deviation 0.9008701737196211 %): 1.86%
